Among the data in the supplement of paper PMC4967469 are AUC and IC50 values, retold here.

The IC50 comes from the fitted curve, where viability falls to half of the control; a fit beyond the top or the lowest dose is shown as a bound at that dose. For AUC the same curve is integrated over the 256-fold range of doses and scaled to a fraction; values near 1 show little effect. The top dose, if marked as inferred, was calculated from the reported fits.

Compound in this test: Cc1ccc(-c2c(C(=O)CF)n(CCCO)c3ncnc(N)c23)cc1 [FMK]
The experiment in a line: Viability of human cancer cell lines after 72 h of drug (GDSC screen). Conditions: top dose inferred. The method, then:
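Human cancer cell lines in 384-well plates, medium with 10% serum, drug for 72 h over a 256-fold dose range (nine 2-fold or five 4-fold steps up to the top dose). Adherent lines were fixed and stained with the nucleic acid dye Syto60, suspension lines read with resazurin; signal relative to control wells, capped at 0 and 100%. One two-parameter sigmoid per drug and line, fitted in a mixed model over all curves with the slope shared within a line.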
As a reminder, the IC50 is the concentration that inhibits the measured activity by half. On to “CAL-39 (cervix, adherent, top dose 20 µM)”, for which the AUC was determined as 0.985 and the IC50 was greater than 20 µM.

In the case of “CAL-51 (breast, adherent, top dose 20 µM)”, the AUC is 0.988 and the IC50 is greater than 20 µM.

Consider “CAL-54 (kidney, adherent, top dose 20 µM)”, for which the AUC came to 0.985 and the half-maximal inhibitory concentration (IC50) was greater than 20 µM.

Take “CAL-62 (thyroid, adherent, top dose 20 µM)”: the AUC was determined as 0.988 and the IC50 was greater than 20 µM.

Take “CAL-72 (osteosarcoma, adherent, top dose 20 µM)”: the AUC is 0.983 and the IC50 was greater than 20 µM.

Take “CAL-78 (chondrosarcoma, adherent, top dose 20 µM)”: the AUC was determined as 0.986 and the IC50 is greater than 20 µM.

For “CAL-85-1 (breast, adherent, top dose 20 µM)”, the AUC came out at 0.962 and the IC50 is greater than 20 µM.

As to “CAL-120 (breast, adherent, top dose 20 µM)”, the AUC worked out at 0.966 and the IC50 is greater than 20 µM.

On to “CAL-148 (breast, suspension, top dose 20 µM)”, for which the AUC is 0.99 and the IC50 was greater than 20 µM.

“CAMA-1 (breast, adherent, top dose 20 µM)”: the AUC came to 0.98 and the IC50 was greater than 20 µM.

For “CAPAN-1 (pancreas, adherent, top dose 20 µM)”, the AUC is 0.968 and the IC50 is greater than 20 µM.

Regarding “CAS-1 (glioma, adherent, top dose 20 µM)”, the AUC amounted to 0.979 and the IC50 was greater than 20 µM.

With “CCF-STTG1 (glioma, adherent, top dose 20 µM)”, the AUC is 0.988 and the half-inhibitory concentration (IC50) is greater than 20 µM.

“CCK-81 (large intestine, adherent, top dose 20 µM)”: the AUC worked out at 0.928 and the IC50 is greater than 20 µM.

Consider “CCRF-CEM (lymphoblastic leukaemia, suspension, top dose 20 µM)”, for which the AUC was 0.981 and the IC50 was greater than 20 µM.

“CESS (acute myeloid leukaemia, suspension, top dose 20 µM)”: the AUC was found to be 0.973 and the IC50 is greater than 20 µM.

“CFPAC-1 (pancreas, adherent, top dose 10.24 µM)”: the AUC was 0.895 and the IC50 was greater than 10.2 µM.

As for “CHL-1 (melanoma, adherent, top dose 20 µM)”, the AUC was 0.986 and the IC50 was greater than 20 µM.

As for “CHP-212 (neuroblastoma, adherent, top dose 20 µM)”, the AUC was determined as 0.905 and the IC50 was greater than 20 µM.

As to “CHSA0011 (chondrosarcoma, adherent, top dose 20 µM)”, the AUC was 0.973 and the IC50 was greater than 20 µM.

Regarding “CHSA0108 (chondrosarcoma, adherent, top dose 20 µM)”, the AUC was 0.977 and the IC50 is greater than 20 µM.

Turning to “CMK (acute myeloid leukaemia, suspension, top dose 20 µM)”, the AUC was 0.952 and the IC50 is greater than 20 µM.

Take “COLO-205 (large intestine, suspension, top dose 20 µM)”: the AUC came to 0.988 and the IC50 was greater than 20 µM.

As to “COLO-320-HSR (large intestine, suspension, top dose 20 µM)”, the AUC amounted to 0.99 and the IC50 was greater than 20 µM.

As for “COLO-668 (small cell lung carcinoma, adherent, top dose 20 µM)”, the AUC came to 0.941 and the IC50 was greater than 20 µM.

As to “COLO-678 (large intestine, semi-adherent, top dose 20 µM)”, the AUC came out at 0.963 and the IC50 is greater than 20 µM.

In the case of “COLO-680N (oesophagus, adherent, top dose 20 µM)”, the AUC turned out to be 0.957 and the IC50 was greater than 20 µM.

“COLO-684 (endometrium, suspension, top dose 20 µM)”: the AUC was found to be 0.976 and the IC50 is greater than 20 µM.

Regarding “COLO-783 (melanoma, adherent, top dose 20 µM)”, the AUC was 0.981 and the IC50 was greater than 20 µM.

Regarding “COLO-792 (melanoma, adherent, top dose 20 µM)”, the AUC came to 0.974 and the IC50 was greater than 20 µM.

Turning to “COLO-800 (melanoma, adherent, top dose 20 µM)”, the AUC came to 0.979 and the IC50 was greater than 20 µM.

On to “COLO-824 (breast, adherent, top dose 20 µM)”, for which the AUC amounted to 0.986 and the IC50 was greater than 20 µM.

As to “COR-L23 (large cell lung carcinoma, adherent, top dose 20 µM)”, the AUC came to 0.968 and the IC50 was greater than 20 µM.

Take “COR-L88 (small cell lung carcinoma, adherent, top dose 20 µM)”: the AUC is 0.983 and the IC50 is greater than 20 µM.

Take “COR-L95 (small cell lung carcinoma, adherent, top dose 20 µM)”: the AUC was found to be 0.972 and the IC50 is greater than 20 µM.

As for “COR-L105 (lung adenocarcinoma, adherent, top dose 20 µM)”, the AUC worked out at 0.934 and the IC50 is greater than 20 µM.

For the cell line “COR-L279 (small cell lung carcinoma, suspension, top dose 20 µM)”, the AUC amounted to 0.99 and the IC50 is greater than 20 µM.

Consider “CP50-MEL-B (melanoma, adherent, top dose 20 µM)”, for which the AUC worked out at 0.986 and the IC50 was greater than 20 µM.

Regarding “CP66-MEL (melanoma, adherent, top dose 20 µM)”, the AUC came to 0.983 and the IC50 is greater than 20 µM.

On to “CPC-N (small cell lung carcinoma, suspension, top dose 20 µM)”, for which the AUC came out at 0.985 and the IC50 is greater than 20 µM.

On to CS1 (bone, adherent, top dose 20 µM), for which the AUC is 0.966 and the IC50 is greater than 20 µM.

As for “CTB-1 (B-cell lymphoma, suspension, top dose 20 µM)”, the AUC turned out to be 0.979 and the IC50 was greater than 20 µM.

Consider “CTV-1 (acute myeloid leukaemia, suspension, top dose 20 µM)”, for which the AUC came out at 0.654 and the IC50 turned out to be 3.03 µM.

Take “CW-2 (large intestine, adherent, top dose 20 µM)”: the AUC is 0.981 and the IC50 is greater than 20 µM.

Consider “Ca9-22 (head and neck, adherent, top dose 20 µM)”, for which the AUC is 0.973 and the IC50 is greater than 20 µM.

Regarding “Ca-Ski (cervix, adherent, top dose 20 µM)”, the AUC worked out at 0.955 and the IC50 was greater than 20 µM.

Consider “CaR-1 (large intestine, adherent, top dose 20 µM)”, for which the AUC was 0.974 and the IC50 is greater than 20 µM.

Regarding “Calu-3 (lung adenocarcinoma, adherent, top dose 20 µM)”, the AUC stood at 0.973 and the IC50 is greater than 20 µM.

As to “Calu-6 (lung adenocarcinoma, adherent, top dose 20 µM)”, the AUC stood at 0.982 and the IC50 is greater than 20 µM.

In the case of “Caov-3 (ovary, adherent, top dose 20 µM)”, the AUC is 0.991 and the IC50 is greater than 20 µM.

With “Caov-4 (ovary, adherent, top dose 20 µM)”, the AUC worked out at 0.963 and the IC50 was greater than 20 µM.

As to “Capan-2 (pancreas, adherent, top dose 20 µM)”, the AUC was 0.984 and the IC50 was greater than 20 µM.

For the cell line “ChaGo-K-1 (non-small cell lung carcinoma, adherent, top dose 20 µM)”, the AUC turned out to be 0.965 and the IC50 was greater than 20 µM.

Consider “D-247MG (glioma, adherent, top dose 20 µM)”, for which the AUC was 0.853 and the IC50 is greater than 20 µM.

On to “D-263MG (glioma, adherent, top dose 20 µM)”, for which the AUC turned out to be 0.977 and the IC50 is greater than 20 µM.

Take “D-283MED (medulloblastoma, adherent, top dose 20 µM)”: the AUC stood at 0.989 and the IC50 is greater than 20 µM.

As to “D-336MG (glioma, adherent, top dose 20 µM)”, the AUC was 0.955 and the IC50 was greater than 20 µM.

Turning to “D-392MG (glioma, adherent, top dose 20 µM)”, the AUC was 0.971 and the half-maximal inhibitory concentration (IC50) is greater than 20 µM.

Consider “D-423MG (glioma, adherent, top dose 10.24 µM)”, for which the AUC is 0.967 and the IC50 is greater than 10.2 µM.

In the case of “D-502MG (glioma, adherent, top dose 20 µM)”, the AUC amounted to 0.973 and the IC50 was greater than 20 µM.

For “D-542MG (glioma, adherent, top dose 20 µM)”, the AUC stood at 0.982 and the IC50 was greater than 20 µM.

For “DAN-G (pancreas, adherent, top dose 20 µM)”, the AUC is 0.991 and the IC50 was greater than 20 µM.

As to “DB (B-cell lymphoma, suspension, top dose 20 µM)”, the AUC was found to be 0.97 and the IC50 is greater than 20 µM.

On to “DBTRG-05MG (glioma, adherent, top dose 20 µM)”, for which the AUC worked out at 0.979 and the IC50 is greater than 20 µM.

Regarding “DEL (lymphoid neoplasm, suspension, top dose 20 µM)”, the AUC turned out to be 0.984 and the IC50 was greater than 20 µM.

On to “DG-75 (Burkitt lymphoma, suspension, top dose 20 µM)”, for which the AUC was 0.986 and the IC50 was greater than 20 µM.

In the case of DJM-1 (skin, adherent, top dose 20 µM), the AUC stood at 0.989 and the IC50 is greater than 20 µM.
